Measured values from the supplement of paper PMC3334620.
Over roughly 33,000 sequences, “E-score (-0.5 to 0.5)” has its median near -0.021; the highest 2% begin near 0.32. The list shows a part of the results.

These sequences were tested against T1, Zap1 (UniProt P47043) (assay: PBM E-score (8-mer binding enrichment) (E-score (-0.5 to 0.5)); higher = stronger / more preferred TF binding; most listed sequences are background and not binding sites). Conditions: protein concentration: 200 nM; construct: GST-full length.
T1 sequence: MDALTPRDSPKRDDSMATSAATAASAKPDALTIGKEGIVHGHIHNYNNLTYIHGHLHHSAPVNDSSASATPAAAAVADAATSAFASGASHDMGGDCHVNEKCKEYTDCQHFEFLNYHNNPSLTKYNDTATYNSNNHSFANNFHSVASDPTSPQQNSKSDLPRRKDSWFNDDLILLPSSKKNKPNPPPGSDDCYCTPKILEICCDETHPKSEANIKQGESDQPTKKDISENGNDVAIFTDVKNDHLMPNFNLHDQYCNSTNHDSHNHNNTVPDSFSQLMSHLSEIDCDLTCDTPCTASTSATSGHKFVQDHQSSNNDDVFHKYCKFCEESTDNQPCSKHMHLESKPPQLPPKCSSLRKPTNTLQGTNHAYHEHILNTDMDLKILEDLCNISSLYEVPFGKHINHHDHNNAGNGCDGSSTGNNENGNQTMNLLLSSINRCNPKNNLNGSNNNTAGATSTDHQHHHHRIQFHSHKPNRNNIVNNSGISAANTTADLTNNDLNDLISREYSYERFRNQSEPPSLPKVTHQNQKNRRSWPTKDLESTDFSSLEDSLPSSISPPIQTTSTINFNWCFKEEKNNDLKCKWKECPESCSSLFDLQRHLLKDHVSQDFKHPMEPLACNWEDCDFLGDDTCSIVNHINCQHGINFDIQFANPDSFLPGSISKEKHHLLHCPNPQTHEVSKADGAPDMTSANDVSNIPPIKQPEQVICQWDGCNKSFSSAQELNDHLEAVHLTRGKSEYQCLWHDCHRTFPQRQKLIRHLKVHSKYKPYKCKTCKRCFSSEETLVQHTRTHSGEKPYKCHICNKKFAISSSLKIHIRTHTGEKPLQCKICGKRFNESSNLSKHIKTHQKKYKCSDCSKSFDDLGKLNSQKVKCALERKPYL
Summary of the method: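 Detection of bound protein used fluorescent anti-GST, with scans normalised by masliner. The proteins were GST-tagged yeast transcription factors applied at about 100-200 nM to universal all-10-mer Agilent arrays made double-stranded by primer extension. Each ungapped eight-base word, pooled with its reverse complement, was scored with an E-score from the Universal PBM Analysis Suite.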

Sequence | PBM E-score
ACCGCTCA | 0.207
GGGCCCAC | -0.0677
ATTTCGAC | -0.11
CGTCGCTC | -0.234
AATTTGAT | 0.00192
CGGGAGTA | 0.0681
GCAACAGC | -0.137
ACTCGGAA | 0.0579
TTCAGCAA | 0.0982
ACAACCGC | 0.285
TATCGGCA | -0.184
CCCCAATC | -0.0086
TCACCGGA | 0.0563
GGAGAAAC | -0.0683
ATCGCTGA | 0.0889
CAAGAGAC | -0.0386
ACATAGAT | -0.0396
CGCGGCGC | -0.0807
CCCCTTTC | -0.0371
CCCCACAC | -0.0263
ATGTGATG | -0.0628
ATCAAAGC | 0.156
ACAGCTGT | 0.0505
TAGCGAAA | 0.125
TAGCTACA | 0.031

Sequence | PBM E-score
TCGGCCGA | -0.00911
TCCAGACA | -0.0795
GACTTGTA | -0.113
AGCCCAGG | -0.191
AACTGAGT | -0.123
CCTCCTCA | -0.167
AGACACGC | -0.222
AATGGTAT | 0.23
GAGACGCC | -0.0996
GTAACTCA | 0.126
CAAACGGA | -0.11
ACACTGCG | -0.0245
CTACCTCC | 0.0798
AAGGAGGG | -0.0526
AAAGTGCA | 0.0507
ACTGCCCT | -0.125
ACCCATAC | 0.285
AAAAAGGC | 0.012
GCCGGAAA | 0.0572
TAGTCACA | -0.0749
CCCGTATC | 0.0321
CTAAGGAG | -0.221
GAGCCTCA | -0.301
GGTTGCAC | 0.181
AGCCACTG | -0.0116

Sequence | PBM E-score
CATCCTAC | -0.142
GAATCTAA | -0.00709
GATAGGGC | -0.213
GCGATTTA | -0.132
AGCTGGCC | -0.188
AAAGGAAT | -0.0362
CCCCCGAA | -0.164
GGTGGTTA | 0.433
CAGTAGAC | -0.126
GAATTAAC | 0.0995
CTGGTTGC | 0.181
AACACAGA | 0.0546
CACGGCGC | -0.0917
ACGGCTAT | -0.243
AAAATTGG | 0.04
GGGCTCGA | -0.137
CCGTTGTC | 0.0475
CACGCGGC | -0.0534
ATGAGCTC | -0.24
CAATACTC | 0.0447
CGATGGGC | -0.107
CTAGAAAA | -0.017
CTCTGTTC | -0.0878
GCTAAAGA | -0.0113
TATCCAAA | 0.229

Sequence | PBM E-score
TCTGATAA | -0.0662
GGTAAAAA | 0.274
ACTGTCGC | -0.224
AAGGACAC | 0.213
GGCTTCGA | 0.00536
CACAAAGA | 0.137
AGGACCAC | 0.0741
GATTCCAC | 0.0825
ACGTAGAT | -0.133
ACCTCGTC | 0.0929
GGCGGGAC | -0.0762
CGCGCCAG | -0.0551
GTCCTTTA | 0.132
GTGCCTCA | -0.0906
GGTGGAAA | -0.203
GGATAATA | -0.0472
AAGGTGAC | 0.261
AAAGATTC | 0.189
CTAACATA | 0.0378
GTCGCAAC | 0.177
GGCACGGA | -0.149
CCTCTCTA | -0.249
CTCTTGTA | 0.0887
AAAACCAC | 0.197
GCGCGTGA | -0.00686

Sequence | PBM E-score
GGGTACAC | 0.141
CTCCATAC | 0.0236
ACACTAGG | -0.0686
GACGCTTA | -0.181
GAAGCTCC | -0.243
CCCAAGCA | 0.102
CATACAGC | -0.249
GCTCCAGC | -0.0997
GCCACGGC | 0.0167
AGTCGTAA | 0.176
GGGAGCAA | -0.283
ACTTACGA | 0.136
AGGGTGGA | 0.163
ATAGTATG | 0.0547
CAGTGTAG | 0.00851
CACCCGCC | 0.114
GAAAAACA | 0.123
GGAACTAC | 0.0621
CGGGAAGC | -0.159
ACCTCAAA | 0.326
CCCTGGCA | -0.0254
TAGGAGGA | -0.0353
AAACCGGA | 0.00487
AACCTTTA | 0.398
CCGTCCTC | -0.191

Sequence | PBM E-score
CTTACGGC | -0.0265
CTGGCGCA | -0.328
GCTTTGCA | -0.0691
AACACCCC | 0.0776
GTGCCCAC | -0.0966
CCAAGTAA | 0.271
CTTTTAGA | 0.00325
AGAGTTAT | 0.189
GACGAGTA | -0.0693
GACACAGC | -0.0871
CCCCCGCC | -0.316
CGATGTCA | -0.222
ACGTCTCT | -0.0811
AACGCTAG | -0.162
CCATCATC | -0.0678
AGAACGAG | 0.0577
TCCAGGCA | -0.0239
GCTCACAA | 0.0225
ATATATAT | 0.145
ATATCAAC | 0.147
ACCGCGTG | 0.0398
CTAGGCTC | -0.203
CGTCCAAC | 0.0234
GTCCCGAA | -0.13
AAGACACA | 0.0314

Sequence | PBM E-score
CAGCATGA | -0.0653
AAATATCT | -0.0382
ACCGGGTA | 0.295
AAAGTCGA | -0.0678
GAGCACGC | -0.139
AATCATAC | 0.0791
AACACGCT | -0.185
ACCGTCTA | -0.05
CTGTGTCC | 0.0345
ACTCTAGC | -0.282
CTTTTCTC | 0.101
AAGATCAG | -0.154
ACTCGGTA | -0.0647
TAGCCCTA | -0.0869
CCTATTCG | -0.0135
CTCTGATA | -0.0467
CGCGCAGC | -0.3
CAAGTCTA | -0.141
TAGGGCGA | -0.136
CCTGGTCC | -0.139
TAATGAGA | 0.0845
AATCTGAC | 0.028
